This is an account of results in publication PMC6656915, “The MmpL3 interactome reveals a complex crosstalk between cell envelope biosynthesis and cell elongation and division in mycobacteria” (Scientific Reports, 2019).

Sequences of proteins named here, by UniProt entry; tags and fusion partners are left off.
UniProt A5U030: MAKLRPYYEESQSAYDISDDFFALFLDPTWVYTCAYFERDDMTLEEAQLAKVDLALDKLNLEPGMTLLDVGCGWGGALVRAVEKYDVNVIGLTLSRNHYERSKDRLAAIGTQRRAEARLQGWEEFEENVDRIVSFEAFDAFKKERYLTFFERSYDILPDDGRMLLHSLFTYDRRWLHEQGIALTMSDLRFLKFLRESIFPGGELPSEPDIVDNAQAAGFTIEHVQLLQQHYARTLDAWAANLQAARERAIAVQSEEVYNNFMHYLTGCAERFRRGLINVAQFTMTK
UniProt I6X8D2: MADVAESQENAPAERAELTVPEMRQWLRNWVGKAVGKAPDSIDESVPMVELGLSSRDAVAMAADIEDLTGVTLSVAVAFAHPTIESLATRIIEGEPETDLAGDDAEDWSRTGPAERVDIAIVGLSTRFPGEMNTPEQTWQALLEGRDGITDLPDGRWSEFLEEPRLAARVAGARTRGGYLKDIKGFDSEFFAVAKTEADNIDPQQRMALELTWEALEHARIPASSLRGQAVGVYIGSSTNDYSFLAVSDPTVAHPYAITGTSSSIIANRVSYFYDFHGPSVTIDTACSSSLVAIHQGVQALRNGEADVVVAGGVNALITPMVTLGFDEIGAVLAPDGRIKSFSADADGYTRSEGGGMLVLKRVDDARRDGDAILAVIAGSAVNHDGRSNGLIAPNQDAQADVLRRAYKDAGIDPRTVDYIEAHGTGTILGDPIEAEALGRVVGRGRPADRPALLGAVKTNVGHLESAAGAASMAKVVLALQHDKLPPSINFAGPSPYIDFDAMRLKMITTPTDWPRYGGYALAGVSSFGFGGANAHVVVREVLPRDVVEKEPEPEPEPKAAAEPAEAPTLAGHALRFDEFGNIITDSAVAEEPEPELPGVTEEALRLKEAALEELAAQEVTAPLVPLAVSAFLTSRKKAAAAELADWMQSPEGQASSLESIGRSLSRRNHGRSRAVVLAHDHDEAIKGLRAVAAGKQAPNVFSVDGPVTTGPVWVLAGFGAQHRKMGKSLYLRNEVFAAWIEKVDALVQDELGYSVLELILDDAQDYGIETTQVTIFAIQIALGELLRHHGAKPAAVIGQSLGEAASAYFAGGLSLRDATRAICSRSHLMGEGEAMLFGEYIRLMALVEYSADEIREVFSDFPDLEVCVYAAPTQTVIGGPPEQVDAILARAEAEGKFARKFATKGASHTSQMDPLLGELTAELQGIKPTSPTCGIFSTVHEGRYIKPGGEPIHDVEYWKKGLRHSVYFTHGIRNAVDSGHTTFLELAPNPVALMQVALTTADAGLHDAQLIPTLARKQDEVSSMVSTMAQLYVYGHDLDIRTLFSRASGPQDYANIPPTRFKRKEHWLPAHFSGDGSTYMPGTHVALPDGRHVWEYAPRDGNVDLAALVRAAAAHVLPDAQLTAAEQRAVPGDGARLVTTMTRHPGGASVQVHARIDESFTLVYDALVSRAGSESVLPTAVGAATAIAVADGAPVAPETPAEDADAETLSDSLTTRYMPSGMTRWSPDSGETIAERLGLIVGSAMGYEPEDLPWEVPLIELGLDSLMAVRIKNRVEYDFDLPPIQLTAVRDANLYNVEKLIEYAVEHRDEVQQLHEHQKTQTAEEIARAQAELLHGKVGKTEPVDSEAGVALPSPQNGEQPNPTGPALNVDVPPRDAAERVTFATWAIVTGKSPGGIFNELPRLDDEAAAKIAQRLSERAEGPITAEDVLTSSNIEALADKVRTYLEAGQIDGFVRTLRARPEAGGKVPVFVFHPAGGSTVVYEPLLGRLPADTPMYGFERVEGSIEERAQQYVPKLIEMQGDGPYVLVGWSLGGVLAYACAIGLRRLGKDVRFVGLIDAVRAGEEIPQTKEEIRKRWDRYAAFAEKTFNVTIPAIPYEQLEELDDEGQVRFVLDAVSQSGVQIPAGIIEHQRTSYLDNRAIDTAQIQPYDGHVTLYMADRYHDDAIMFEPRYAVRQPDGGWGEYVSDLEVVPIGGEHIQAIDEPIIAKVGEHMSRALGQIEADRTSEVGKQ
UniProt Q79FX8: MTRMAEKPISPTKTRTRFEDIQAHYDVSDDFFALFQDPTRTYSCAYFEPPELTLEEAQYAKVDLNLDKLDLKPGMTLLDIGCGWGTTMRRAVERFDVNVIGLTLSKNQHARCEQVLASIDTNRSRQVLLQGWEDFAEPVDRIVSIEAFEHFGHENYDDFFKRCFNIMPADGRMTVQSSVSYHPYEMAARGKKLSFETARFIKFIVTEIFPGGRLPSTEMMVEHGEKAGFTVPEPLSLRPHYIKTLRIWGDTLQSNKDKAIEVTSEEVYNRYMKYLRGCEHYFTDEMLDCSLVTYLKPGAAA
UniProt P9WPB5: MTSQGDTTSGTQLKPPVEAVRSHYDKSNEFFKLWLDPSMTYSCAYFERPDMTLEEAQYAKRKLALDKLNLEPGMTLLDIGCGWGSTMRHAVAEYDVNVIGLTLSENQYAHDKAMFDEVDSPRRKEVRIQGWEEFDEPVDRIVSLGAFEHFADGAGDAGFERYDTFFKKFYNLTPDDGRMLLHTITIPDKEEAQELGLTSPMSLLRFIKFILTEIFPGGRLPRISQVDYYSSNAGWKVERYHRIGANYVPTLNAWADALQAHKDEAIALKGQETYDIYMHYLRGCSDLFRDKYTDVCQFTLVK
UniProt P96890: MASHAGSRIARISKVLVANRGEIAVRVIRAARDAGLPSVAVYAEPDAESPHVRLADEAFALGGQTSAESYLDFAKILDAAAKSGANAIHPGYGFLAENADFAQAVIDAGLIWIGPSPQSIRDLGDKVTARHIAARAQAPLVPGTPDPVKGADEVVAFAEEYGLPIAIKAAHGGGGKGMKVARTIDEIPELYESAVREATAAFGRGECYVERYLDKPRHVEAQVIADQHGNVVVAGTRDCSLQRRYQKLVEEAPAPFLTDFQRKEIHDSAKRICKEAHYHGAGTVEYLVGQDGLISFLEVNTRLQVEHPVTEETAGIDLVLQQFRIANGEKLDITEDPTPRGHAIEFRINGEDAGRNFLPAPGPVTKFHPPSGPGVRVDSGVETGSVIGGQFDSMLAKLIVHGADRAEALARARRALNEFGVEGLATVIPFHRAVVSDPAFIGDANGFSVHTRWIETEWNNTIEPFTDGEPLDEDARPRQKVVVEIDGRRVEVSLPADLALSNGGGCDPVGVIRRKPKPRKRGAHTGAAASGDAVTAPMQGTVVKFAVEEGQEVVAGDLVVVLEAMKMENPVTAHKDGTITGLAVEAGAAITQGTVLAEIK
UniProt P9WGT3: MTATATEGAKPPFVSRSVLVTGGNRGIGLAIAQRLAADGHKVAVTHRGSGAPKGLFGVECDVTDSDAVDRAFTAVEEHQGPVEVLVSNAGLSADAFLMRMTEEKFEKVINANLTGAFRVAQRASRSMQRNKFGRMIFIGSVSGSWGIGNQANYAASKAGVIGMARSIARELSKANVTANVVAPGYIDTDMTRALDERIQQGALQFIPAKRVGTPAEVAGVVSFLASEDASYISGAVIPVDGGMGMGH
UniProt P9WPB3: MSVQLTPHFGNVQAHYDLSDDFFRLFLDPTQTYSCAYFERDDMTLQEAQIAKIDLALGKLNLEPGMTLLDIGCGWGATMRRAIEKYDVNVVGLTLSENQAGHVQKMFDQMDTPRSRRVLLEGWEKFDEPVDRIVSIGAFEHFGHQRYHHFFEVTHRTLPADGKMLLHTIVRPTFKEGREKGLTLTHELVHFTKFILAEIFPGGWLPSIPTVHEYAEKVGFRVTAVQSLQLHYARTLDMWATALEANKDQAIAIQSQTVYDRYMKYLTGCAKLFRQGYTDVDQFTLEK
UniProt Q6MX39: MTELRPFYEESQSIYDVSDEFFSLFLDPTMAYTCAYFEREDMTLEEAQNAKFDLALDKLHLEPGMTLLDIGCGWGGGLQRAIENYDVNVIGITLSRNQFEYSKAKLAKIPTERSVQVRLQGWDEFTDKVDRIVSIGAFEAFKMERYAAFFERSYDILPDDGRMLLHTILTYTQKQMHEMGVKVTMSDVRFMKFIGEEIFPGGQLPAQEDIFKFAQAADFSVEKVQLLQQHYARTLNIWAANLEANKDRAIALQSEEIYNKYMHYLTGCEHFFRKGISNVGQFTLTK

No constants are given. Whether binding was seen depends on the method and setting. Some entries that bind do so weakly or less than the wild type. Where a sequence is shown, tags or fusion partners need not be part of it.

The test concerns the target T1, MmpL3 (full-size) fused to T18 or T25 domain for the BACTH two-hybrid system (M. tuberculosis) (UniProt P9WJV5).
T1 sequence: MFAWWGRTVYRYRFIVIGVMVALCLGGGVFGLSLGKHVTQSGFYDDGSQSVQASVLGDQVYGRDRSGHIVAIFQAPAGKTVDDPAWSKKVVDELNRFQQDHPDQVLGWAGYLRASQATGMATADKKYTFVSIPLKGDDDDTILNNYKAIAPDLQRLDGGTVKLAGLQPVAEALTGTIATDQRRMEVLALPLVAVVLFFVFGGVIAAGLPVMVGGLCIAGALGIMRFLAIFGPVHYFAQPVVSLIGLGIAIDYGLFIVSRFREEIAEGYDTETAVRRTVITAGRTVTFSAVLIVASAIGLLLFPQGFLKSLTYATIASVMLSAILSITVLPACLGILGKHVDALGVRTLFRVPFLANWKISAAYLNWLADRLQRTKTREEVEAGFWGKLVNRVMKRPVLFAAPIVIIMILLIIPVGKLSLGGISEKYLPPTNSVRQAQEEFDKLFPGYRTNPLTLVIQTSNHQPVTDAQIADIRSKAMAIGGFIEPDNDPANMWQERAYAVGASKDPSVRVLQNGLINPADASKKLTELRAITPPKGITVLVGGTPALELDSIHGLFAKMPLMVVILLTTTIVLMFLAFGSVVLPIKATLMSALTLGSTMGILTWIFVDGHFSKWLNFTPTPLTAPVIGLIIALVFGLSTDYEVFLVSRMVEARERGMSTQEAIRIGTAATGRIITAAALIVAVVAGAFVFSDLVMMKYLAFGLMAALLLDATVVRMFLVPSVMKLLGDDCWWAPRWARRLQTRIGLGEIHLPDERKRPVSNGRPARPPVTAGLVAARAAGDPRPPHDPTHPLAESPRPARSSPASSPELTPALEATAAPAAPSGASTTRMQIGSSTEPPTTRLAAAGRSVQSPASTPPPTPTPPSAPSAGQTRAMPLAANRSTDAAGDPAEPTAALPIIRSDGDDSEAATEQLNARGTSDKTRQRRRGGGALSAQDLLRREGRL
The test is described as follows: two-hybrid.

For the molecule “MmaA1, BACTH fusion (from UniProt A5U030 1-286) (enzyme)”, the binding result is recorded as “no binding”.
Turning to “Pks13, BACTH fusion (from UniProt I6X8D2 1-1733) (enzyme)”, the binding entry was “no binding”.
To “MmaA4, BACTH fusion (from UniProt Q79FX8 1-301) (enzyme)” belongs “no binding”; to “CmaA2, BACTH fusion (from UniProt P9WPB5 1-302) (enzyme)”, “no binding”; to “AccA3, BACTH fusion (from UniProt P96890 1-600) (enzyme)”, “no binding”.
To “MabA, BACTH fusion (from UniProt P9WGT3 1-247) (enzyme)” belongs “no binding”; to “PcaA, BACTH fusion (from UniProt P9WPB3 1-287) (enzyme)”, “no binding”.
In the case of “UmaA, BACTH fusion (from UniProt Q6MX39 1-286) (enzyme)” it was “no binding”.

B1: FadD32, BACTH fusion (enzyme, UniProt O53580 1-637)
chain: MFVTGESGMAYHNPFIVNGKIRFPANTNLVRHVEKWAKVRGDKLAYRFLDFSTERDGVARDILWSDFSARNRAVGARLQQVTQPGDRVAILCPQNLDYLISFFGALYSGRIAVPLFDPAEPGHVGRLHAVLDDCAPSTILTTTDSAEGVRKFIRARSAKERPRVIAVDAVPTEVAATWQQPEANEETVAYLQYTSGSTRIPSGVQITHLNLPTNVVQVLNALEGQEGDRGVSWLPFFHDMGLITVLLASVLGHSFTFMTPAAFVRRPGRWIRELARKPGETGGTFSAAPNFAFEHAAVRGVPRDDEPPLDLSNVKGILNGSEPVSPASMRKFFEAFAPYGLKQTAVKPSYGLAEATLFVSTTPMDEVPTVIHVDRDELNNQRFVEVAADAPNAVAQVSAGKVGVSEWAVIVDADTASELPDGQIGEIWLHGNNLGTGYWGKEEESAQTFKNILKSRISESRAEGAPDDALWVRTGDYGTYFKDHLYIAGRIKDLVIIDGRNHYPQDLECTAQESTKALRVGYAAAFSVPANQLPQTVFDDSHAGLKFDPEDTSEQLVIVGERAAGTHKLDHQPIVDDIRAAIAVGHGVTVRDVLLVSAGTIPRTSSGKIGRRACRAAYLDGSLRSGVGSPTVFATSD
In the case of B1, the binding entry is listed as “no binding”.

B2: InhA, BACTH fusion (enzyme, UniProt P9WGR1 1-269)
chain: MTGLLDGKRILVSGIITDSSIAFHIARVAQEQGAQLVLTGFDRLRLIQRITDRLPAKAPLLELDVQNEEHLASLAGRVTEAIGAGNKLDGVVHSIGFMPQTGMGINPFFDAPYADVSKGIHISAYSYASMAKALLPIMNPGGSIVGMDFDPSRAMPAYNWMTVAKSALESVNRFVAREAGKYGVRSNLVAAGPIRTLAMSAIVGGALGEEAGAQIQLLEEGWDQRAPIGWNMKDATPVAKTVCALLSDWLPATTGDIIYADGGAHTQLL
B2: the binding entry is reported as “no binding”.

B3: MmaA3, BACTH fusion (enzyme, UniProt P0CH91 1-293)
chain: MSDNSTGTTKSRSNVDDVQAHYDLSDAFFALFQDPTRTYSCAYFERDDMTLHEAQVAKLDLTLGKLGLEPGMTLLDVGCGWGSVMKRAVERYDVNVVGLTLSKNQHAYCQQVLDKVDTNRSHRVLLSDWANFSEPVDRIVTIEAIEHFGFERYDDFFKFAYNAMPADGVMLLHSITGLHVKQVIERGIPLTMEMAKFIRFIVTDIFPGGRLPTIETIEEHVTKAGFTITDIQSLQPHFARTLDLWAEALQAHKDEAIEIQSAEVYERYMKYLTGCAKAFRMGYIDCNQFTLAK
On to B3, for which the binding entry was “no binding”.

B4: MmaA2, BACTH fusion (enzyme, UniProt Q79FX6 1-287)
chain: MVNDLTPHFEDVQAHYDLSDDFFRLFLDPTQTYSCAHFEREDMTLEEAQIAKIDLALGKLGLQPGMTLLDIGCGWGATMRRAIAQYDVNVVGLTLSKNQAAHVQKSFDEMDTPRDRRVLLAGWEQFNEPVDRIVSIGAFEHFGHDRHADFFARAHKILPPDGVLLLHTITGLTRQQMVDHGLPLTLWLARFLKFIATEIFPGGQPPTIEMVEEQSAKTGFTLTRRQSLQPHYARTLDLWAEALQEHKSEAIAIQSEEVYERYMKYLTGCAKLFRVGYIDVNQFTLAK
As to B4, the binding entry is given as “no binding”.

B5: FabD, BACTH fusion (enzyme, UniProt P9WNG5 1-302)
chain: MIALLAPGQGSQTEGMLSPWLQLPGAADQIAAWSKAADLDLARLGTTASTEEITDTAVAQPLIVAATLLAHQELARRCVLAGKDVIVAGHSVGEIAAYAIAGVIAADDAVALAATRGAEMAKACATEPTGMSAVLGGDETEVLSRLEQLDLVPANRNAAGQIVAAGRLTALEKLAEDPPAKARVRALGVAGAFHTEFMAPALDGFAAAAANIATADPTATLLSNRDGKPVTSAAAAMDTLVSQLTQPVRWDLCTATLREHTVTAIVEFPPAGTLSGIAKRELRGVPARAVKSPADLDELANL
On to B5, for which the binding result is “no binding”.

B6: MmpL3 (full-size) fused to T18 or T25 domain for the BACTH two-hybrid system (protein, UniProt P9WJV5 1-944)
chain: T1 sequence
Consider B6, for which the binding entry was “binds”.

B7: AccD4, BACTH fusion (enzyme, UniProt O53578 1-522)
chain: MTVTEPVLHTTAEKLAELRERLELAKEPGGEKAAAKRDKKGIPSARARIYELVDPGSFMEIGALCRTPGDPNALYGDGVVTGHGLINGRPVGVFSHDQTVFGGTVGEMFGRKVARLMEWCAMVGCPIVGINDSGGARIQDAVTSLAWYAELGRRHELLSGLVPQISIILGKCAGGAVYSPIQTDLVVAVRDQGYMFVTGPDVIKDVTGEDVSLDELGGADHQASYGNIHQVVESEAAAYQYVRDFLSFLPSNCFDKPPVVNPGLEPEITGHDLELDSIVPDSDNMAYDMHEVLLRIFDDGDFLDVAAQAGQAIITGYARVDGRTVGVVANQPMHMSGAIDNEASDKAARFIRFSDAFDIPLVFVVDTPGFLPGVEQEKNGIIKRGGRFLYAVVEADVPKVTITIRKSYGGAYAVMGSKQLTADLNFAWPTARIAVIGADGAAQLLMKRFPDPNAPEAQAIRKSFVENYNLNMAIPWIAAERGFIDAVIDPHETRLLLRKSMHLLRDKQLWWRVGRKHGLIPV
For the molecule B7, the binding result is reported as “no binding”.

B8: KasA, BACTH fusion (enzyme, UniProt P9WQD9 1-416)
chain: MSQPSTANGGFPSVVVTAVTATTSISPDIESTWKGLLAGESGIHALEDEFVTKWDLAVKIGGHLKDPVDSHMGRLDMRRMSYVQRMGKLLGGQLWESAGSPEVDPDRFAVVVGTGLGGAERIVESYDLMNAGGPRKVSPLAVQMIMPNGAAAVIGLQLGARAGVMTPVSACSSGSEAIAHAWRQIVMGDADVAVCGGVEGPIEALPIAAFSMMRAMSTRNDEPERASRPFDKDRDGFVFGEAGALMLIETEEHAKARGAKPLARLLGAGITSDAFHMVAPAADGVRAGRAMTRSLELAGLSPADIDHVNAHGTATPIGDAAEANAIRVAGCDQAAVYAPKSALGHSIGAVGALESVLTVLTLRDGVIPPTLNYETPDPEIDLDVVAGEPRYGDYRYAVNNSFGFGGHNVALAFGRY
B8: the binding entry is “no binding”.

B9: CmaA1, BACTH fusion (enzyme, UniProt P9WPB7 1-287)
chain: MPDELKPHFANVQAHYDLSDDFFRLFLDPTQTYSCAYFERDDMTLQEAQIAKIDLALGKLGLQPGMTLLDVGCGWGATMMRAVEKYDVNVVGLTLSKNQANHVQQLVANSENLRSKRVLLAGWEQFDEPVDRIVSIGAFEHFGHERYDAFFSLAHRLLPADGVMLLHTITGLHPKEIHERGLPMSFTFARFLKFIVTEIFPGGRLPSIPMVQECASANGFTVTRVQSLQPHYAKTLDLWSAALQANKGQAIALQSEEVYERYMKYLTGCAEMFRIGYIDVNQFTCQK
As to B9, the binding entry is “no binding”.
